How the values were obtained:
[1] = system: Breast-31 (BR31) TNBC PDX; experiment: In vivo efficacy, PDX tumor growth; parameters: species or system human tumor in NOD/SCID mice; conditions: 3 mg/kg
Source text: The effects of anti-PTK7 antibody-drug conjugates were further evaluated on the in vivo growth of human tumor patient-derived xenografts (PDX). Primary tumor resection samples were procured from clinical sites following Institutional Review Board for the Protection of Human Subjects approval and in accordance with HIPAA regulations. Tumor fragments were stored and shipped in Hypothermasol (Biolife Solutions) on ice and were embedded in Matrigel (BD) containing a proprietary mix of growth factors and implanted subcutaneously into the mammary fatpad of female NOD/SCID mice within 24 hours of resection. Mice were monitored for health status daily and for tumor growth initially by visual inspection twice per week. Once the tumors were palpable, measurements of tumor volume began to track tumor growth and estimate cell doubling time. Tumor volume was estimated using the equation V=(A*B^2)/2 where A is the long axis and B is the short axis. When tumors reached a volume of 500 mm^3 to 1,500 mm^3, they were harvested for study and for re-transplant as a patient-derived xenograft (PDX). Depending on the line, mechanical and/or chemical dissociation can be used to separate the individual cells for passage. Live cells were inoculated into naïve animals with 10,000 to 50,000 cells per animals
For efficacy studies, tumors were harvested from passaging studies and cells were dissociated into single cell suspension. Preparations were counted for live cells using Trypan blue exclusion and 10,000 to 50,000 cells were inoculated per mouse in Matrigel. […] Tumor growth was initially followed by palpability with measurements beginning once tumor volumes reached about 30 mm^3. Studies were randomized based on tumor size once a cohort of tumor-bearing mice reached 140 mm^3 to 180 mm^3. Animals were dosed by intraperitoneal injection twice a week for two weeks (q4dx4). Study groups were followed until individual mice or entire group tumor measurements reached 1200 mm^3 when sacrifice was indicated in accordance with IACUC protocol. For selected dosing studies, pharmacokinetic submandibular bleeds were performed at 2 hours, 36 hours and 72 hours. A volume of 10 μL of blood was immediately pipetted into 90 μL of HBS-P (GE Healthcare). Samples were stored at −80° C. prior to analysis. For each tumor measurement the tumor volume±standard error of the mean (SEM) is provided. GT=Group Terminated due to large tumor size.
Animals were dosed every four days for four cycles (Q4Dx4) by intraperitoneal injection except the BR5 study which was by intravenous injection on the same schedule. Tumor measurements were recorded one or two times per week using digital calipers and tumor volume was estimated using the equation V=(A×B^2)/2 where A is the long axis and B is the short axis. Animal body weights were measured and recorded at least once a week. Study groups were followed until individual mice or entire group tumor measurements reached 1200 mm^3 at which point sacrifice was indicated in accordance with IACUC protocol. For the BR5 study, animals were sacrificed once tumor volume approached 15% of the body weight at staging in accordance with IACUC protocol.
Tumor growth inhibition (TGI) was calculated using the equation % TGI=[1−(mean tumor volume of treated)/(mean tumor volume of vehicle)]. […] Tumor regression was defined as a reduction in mean tumor volume after dosing. In cases where tumors regressed, Time To Progression (TTP) indicates the number of days between the first does and the time at which mean tumor volume increased from the previous measurement to a statistically significant degree.

HUVEC cells = experiment: In vitro HUVEC sprouting angiogenesis assay; type: cell-based, human; conditions: 1 μg/mL; 8 days; FIG. 23
Method: Briefly, HUVEC cells (Lonza—#CC-2517) were used to coat Cytodex beads (Sigma #C0646-5G) at a ratio of approximately 1×10^6 cells/2500 beads, and then placed overnight in an 37° C./5% CO2 incubator with Endothelial Cell Growth Medium (Lonza # CC-3162). The following day the beads were washed with Endothelial Cell Growth Medium, and re-suspended in a solution of a 2.0 mg/ml fibrinogen type I (filter sterilized) in DPBS and 0.15 units/ml Aprotinin. Into each well of a 24 well plate, 0.3125 units of thrombin were added prior to addition of 500 ul of the bead solution. To facilitate clotting, the plates were placed in a 37° C. incubator for 15 minutes. Lastly skin fibroblast cells (Detroit 551—ATCC #CCL-110), suspended in Endothelial Cell Growth Medium, were carefully laid on top of the formed fibrinogen clot. The cells were fed, with their respective drug treatment, every other day and grown for 8 days. The degree of HUVEC sprouting and formation of branching vessels was observed.

BR13 TNBC breast tumors = experiment: Tumor-initiating cell (TIC) frequency by limit dilution analysis after in vivo treatment; parameters: species or system human tumor in mice; conditions: 4 mpk
Method: To determine whether anti-PTK7 antibody-drug conjugate treatments reduced tumor-initiating cell (TIC) frequency in tumors, BR13 TNBC breast tumors were treated with 4 mg/kg hu24-vc0101 ADC, 4 mg/kg control IgG ADC, or 20 mg/kg docetaxel chemotherapy twice weekly for a total of 3 doses (Days 0, 3 & 7). Live, residual human tumor cells (i.e. hESA^+ mCD45^− mH-2Kd^−) were isolated from dissociated tumors at day 10 and re-implanted into naïve animals in a limit dilution analysis (LDA). Resulting tumor incidence was monitored for up to 40 weeks post-transplant. The day of tumor harvest (day 10) and serial transplantation was chosen based on when tumors were starting to regress following hu24-vc0101 exposure. Tumors were dissociated and stained with anti-human ESA, anti-mouse CD45, and anti-mouse H-2Kd antibodies. Three tumors per treatment group were pooled, and live human tumor cells were sorted by flow cytometry. Groups of 10 mice were injected with either 293, 73, 37 or 15 tumor cells sorted from control IgG ADC treated tumors; 159, 90, 40 or 10 tumor cells sorted from hu24-vc0101 treated tumors; or 257, 33 or 15 tumor cells sorted from docetaxel-treated tumors. Tumors in recipient mice were measured weekly and tumors that exceeded 200 mm^3 in recipient mice were scored as positive. Using Poisson distribution statistics, via L-Calc software (Stemcell Technologies, Vancouver, BC), injected cell doses of recipients with and without tumors by 40 weeks post-transplant were used to calculate the frequency of TIC after each treatment.

B1: hu24-vc0101: hu24 conjugated through cysteines to vc0101 linker-payload; average DAR approximately 4 (conjugate)
heavy: QVQLVQSGPEVKKPGASVKVSCKASGYTFTDYAVHWVRQAPGKRLEWIGVISTYNDYTYNNQDFKGRVTMTRDTSASTAYMELSRLRSEDTAVYYCARGNSYFYALDYWGQGTSVTVSS[letters of human IgG1 constant region omitted]
light: EIVLTQSPATLSLSPGERATLSCRASESVDSYGKSFMHWYQQKPGQAPRLLIYRASNLESGIPARFSGSGSGTDFTLTISSLEPEDFAVYYCQQSNEDPWTFGGGTKLEIKRTVAAPSVFIFPPSDEQLKSGTASVVCLLNNFYPREAKVQWKVDNALQSGNSQESVTEQDSKDSTYSLSSTLTLSKADYEKHKVYACEVTHQGLSSPVTKSFNRGEC
- tumor volume ± SEM ([1]; Day 0): 159 ± 15 mm^3
- tumor volume ± SEM ([1]; Day 7): 188 ± 12 mm^3
- tumor volume ± SEM ([1]; Day 14): 82 ± 7 mm^3
- tumor volume ± SEM ([1]; Day 21): 21 ± 3 mm^3
- tumor volume ± SEM ([1]; Day 28): 0 ± 0 mm^3
- tumor volume ± SEM ([1]; Day 35): 0 ± 0 mm^3
- tumor volume ± SEM ([1]; Day 42): 0 ± 0 mm^3
- tumor volume ± SEM ([1]; Day 49): 0 ± 0 mm^3
- tumor volume ± SEM ([1]; Day 56): 0 ± 0 mm^3
- tumor volume ± SEM ([1]; Day 63): 0 ± 0 mm^3
- tumor volume ± SEM ([1]; Day 70): 0 ± 0 mm^3
- tumor volume ± SEM ([1]; Day 77): 1 ± 1 mm^3
- tumor volume ± SEM ([1]; Day 84): 2 ± 2 mm^3
- tumor volume ± SEM ([1]; Day 91): 10 ± 10 mm^3
- tumor volume ± SEM ([1]; Day 98): 13 ± 13 mm^3
- tumor volume ± SEM ([1]; Day 105): 111 ± 92 mm^3
- tumor volume ± SEM ([1]; Day 112): 370 ± 269 mm^3
- tumor volume ± SEM ([1]; Day 119): 521 ± 429 mm^3
- tumor volume ± SEM ([1]; Day 126): 551 ± 428 mm^3
- tumor volume ± SEM ([1]; Day 133): 745 ± 499 mm^3
- tumor volume ± SEM ([1]; Day 140): 765 ± 494 mm^3
- tumor volume ± SEM ([1]; Day 147): 794 ± 488 mm^3
- Regression (TTP, Days) ([1]; Q4Dx4 ip): Regression (105) Days
- effect on HUVEC sprouting angiogenesis (HUVEC cells): inhibited sprouting angiogenesis
- # Animals with tumors (BR13 TNBC breast tumors; Group B1, 159 cells implanted per animal, 7 animals in group): 3
- # Animals with tumors (BR13 TNBC breast tumors; Group B2, 90 cells implanted per animal, 8 animals in group): 2
- # Animals with tumors (BR13 TNBC breast tumors; Group B3, 40 cells implanted per animal, 10 animals in group): 0
- # Animals with tumors (BR13 TNBC breast tumors; Group B4, 10 cells implanted per animal, 8 animals in group): 0
